# Screen size: about 310,000 compounds; about 18,000 (5.8%) were called active. Inconclusive means that the source gave no clear call. Such entries were picked first, then a sample of the others. Calls come from the whole dose curve; as a rule, active = well fitted inhibition curve with a large enough effect; inconclusive = small, poorly fitted or top-dose-only effect, or another doubt; inactive = no such curve, though single readings can be large or run the other way. Potencies of inconclusive entries are left out as doubtful fits.
# Assay: Primary qHTS for delayed death inhibitors of the malarial parasite plastid, 48 hour incubation
# Details: P. falciparum luciferase growth in erythrocytes; series mostly up to 28.7 µM; activity change, negative = inhibition: at the top concentration
# Procedure, shortened: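 Luminescence readout; reporter = integrated firefly luciferase in P. falciparum. RBC culture at 2% hematocrit, 0.1% parasitemia final, 37 C/5% CO2; decreased signal taken as growth inhibition.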
# % is set by controls: 0 for no effect and ±100 for the full control effect; potency is the fitted concentration of half-maximal effect; tags give direction and shape of the fitted curve.
Compound,"activity change, negative = inhibition",Potency
CC1CC(C)(C)CC2(C1)NC(=O)N(CC(=O)Nc1ccc(N3CCCCC3)cc1)C2=O (stereo not given),inactive: 9.35%,
O=C(OCn1nnc2ccccc2c1=O)c1ccc(N2CCOCC2)c([N+](=O)[O-])c1,inactive: 13.7%,
CCCCCCCOc1ccc(C(=O)Nc2cccnc2)cc1,inactive: 39.4%,
Cc1ccc(S(=O)(=O)N2CCC(=O)N(C(COCc3ccccc3)C(C)C)CC2)cc1 (stereo not given),,"inconclusive [inhibitor, single point]"
CCOc1ccc(NC(=O)c2cn(-c3ccc(OCC)cc3)c(=O)c3cc(OC)c(OC)cc23)cc1,,"inconclusive [inhibitor, single point]"
CCN(CC)S(=O)(=O)c1ccc(N2CCCC2)c(NS(=O)(=O)c2ccc(OC)cc2)c1,,"inconclusive [inhibitor, single point]"
CN(c1ccccc1)S(=O)(=O)c1ccc(NC(=O)c2ccc(-c3ccccc3)cc2)cc1,,"inconclusive [inhibitor, partial curve, poor fit]"
COc1ccc(C(=O)N2CCC(C(=O)c3c(C)cc(C)cc3C)CC2)cc1,,"inconclusive [inhibitor, single point]"
O=C(CN1CCC(NC(=O)c2ccco2)CC1)Nc1cccc2ccccc12,,"inconclusive [inhibitor, partial curve]"
CCC1=[N+](CC(=O)c2ccc(C)cc2)CCn2c(C)ccc21,,active: 3.29 µM
COc1ccc(CNC(=O)CSc2nn3c(=O)c(C(C)(C)C)nnc3s2)cc1OC,,"inconclusive [inhibitor, partial curve, poor fit]"
CC(C1CC2CCC1C2)n1c(COc2ccccc2F)nnc1SCC(N)=O (stereo not given),,"inconclusive [inhibitor, full curve]"
CCOCCCNC(=O)c1cc2c(=O)n(CC)c3ccccc3c2s1,inactive: -28.6% [at 0.00184 µM],
COc1ccc(C2C3=C(Nc4ncnn42)c2ccccc2CCC3)cc1 (stereo not given),,"inconclusive [inhibitor, single point]"
CCn1c(SCc2ccccc2)nnc1-c1cccnc1,,"inconclusive [inhibitor, single point]"
O=C(Nc1ccccc1)Nc1ccccn1,,inactive
S=C(Nc1ccc(Oc2ccccc2)cc1)N(CCCN1CCOCC1)Cc1ccccn1,,"inconclusive [inhibitor, single point]"
COc1cccc2cc(C(C)N(CCCN3CCOCC3)C(=S)Nc3ccccc3C)oc12 (stereo not given),,"inconclusive [inhibitor, single point]"
N#Cc1ccc(C2=NC(C(F)(F)F)(C(F)(F)F)c3c(n(Cc4ccco4)c(=O)[nH]c3=O)N2)cc1,,"inconclusive [inhibitor, partial curve]"
COc1ccc(C2/C(=C(\O)c3ccc4c(c3)OCCO4)C(=O)C(=O)N2CCCn2ccnc2)cc1 (stereo not given),,"inconclusive [inhibitor, partial curve, poor fit]"

Compound,"activity change, negative = inhibition",Potency
O=C(C1CCC1)N1CCN(S(=O)(=O)c2ccc(Br)cc2Cl)CC1,,"inconclusive [inhibitor, single point]"
COc1ccc(CC2S/C(=N/N=C/c3ccccc3O)NC2=O)cc1 (stereo not given),,"inconclusive [inhibitor, partial curve]"
COc1ccc(-c2c(C)[nH]n3c(=O)c(Cc4ccccc4)c(C)nc23)cc1,,"inconclusive [inhibitor, partial curve]"
O=C(Cn1nnc(-c2ccc(CN3CCOCC3)cc2)n1)N(c1ccccc1)c1ccccc1,,"inconclusive [inhibitor, partial curve]"
CCOC(=O)C1CCCN(S(=O)(=O)c2ccc(S(N)(=O)=O)cc2)C1 (stereo not given),,"inconclusive [inhibitor, single point]"
CC1CCN(c2c(NCC3CCC(C(=O)NCCc4ccc(Cl)cc4)CC3)c(=O)c2=O)CC1 (stereo not given),,"inconclusive [inhibitor, partial curve]"
Cc1ccc(C)c(NC(=O)C2CCCN(S(=O)(=O)c3c(C)noc3/C=C/N(C)C)C2)c1 (stereo not given),,"inconclusive [inhibitor, single point]"
O=C(Cn1nc(-c2ccccc2)ccc1=O)Nc1ccc(NC(=O)c2ccccn2)cc1,inactive: 23.2%,
CCOc1cc(CNCc2ccncc2)cc(Br)c1OCc1ccccc1F,,"inconclusive [inhibitor, partial curve]"
O=c1[nH]c(Nc2ccc3c(c2)OCCO3)nnc1Cc1ccccc1,,"inconclusive [inhibitor, full curve]"
CCSC(C)CC1C/C(=N/O)c2c(C)noc2C1 (stereo not given),,"inconclusive [inhibitor, partial curve, poor fit]"
CCCCCCC1C(C#N)=C(N)OC2=C1C(=O)CC(C)(C)C2 (stereo not given),inactive: -1.9%,
CN(C)S(=O)(=O)Oc1ccc(C(=O)Nc2cccc(C(F)(F)F)c2)cc1,,"inconclusive [inhibitor, full curve, poor fit]"
O=C(N/N=C/c1ccccc1)c1sccc1OCc1ccc(F)cc1,,"inconclusive [inhibitor, single point]"
CCOC(=O)c1cnc2c(c(C)nn2C)c1Oc1ccc(Cl)cc1,,"inconclusive [inhibitor, partial curve, poor fit]"
CCn1c(SCC(=O)c2c(N)n(C)c(=O)n(C)c2=O)nc2sc(C)c(C)c2c1=O,,"inconclusive [inhibitor, full curve, poor fit]"
Cc1cccc(N2C(=O)CC(Sc3nccc(C)n3)C2=O)c1 (stereo not given),inactive: 0%,
Cc1cc(-c2csc(NC(=O)c3ccc(S(=O)(=O)N(C)C)cc3)n2)c(C)n1-c1ccccc1,,"inconclusive [inhibitor, partial curve, poor fit]"
O=C1C(CCC(O)c2ccc(F)cc2)C(c2ccc(O)cc2)N1c1ccc(F)cc1 (stereo not given),inactive: -7.8%,
CCC(C)c1ccccc1OCCn1ccnc1 (stereo not given),,"inconclusive [inhibitor, partial curve]"
